Reference: the RNAGym collection of RNA variant scans (doi:10.7554/elife.90254)
The source gives no read counts; variants with many changes may rest on few reads.

B1: OR4K15 (parent)
chain: GUUAACGGUCAUAGGCCAUGGAAACUAGGAGCACCAUUUCGCUGCCAGUGAAGAAAUGAACAAAGAAAAUCUGGGCCAGGCAGGCAUCAAAAGAAAUAGUCUUGCGCUCAACCAGAAAGUCUGUAAUCAUUUUAAGGGUA

Variants of: B1
Assay: self-cleavage, relative activity (ratio to wild type); higher = more cleavage; in vitro, sequencing; the parent is a self-cleaving ribozyme

Variant	self-cleavage
GUUAACGGUCAUAGGCCAUGGAAACUAGAAGCACCAUUUCGCUGCCAGUGAAGGAAUGAACAAAGAAAGUCUGGGCCAGGCAGGCAUCAAAAGAAAUAGUCUCGCGCUCAACCAGAAAGUCUGUAAUCAUUUUAAGGGUA [G29A A54G A69G U103C]	0.51
GUUAACGGCCAUAGGCCAUGGAAGCUAGGAGCACCAUUUCGCUGCCAGUGAAGAAAUGAACAAAGAAAAUCUGGGCCAGGCAGGCACCAAAAGAAAUAGUCUUGCGCUCAACCAGAAAGGCUGUAAUCAUUUUAAGGGUA [U9C A24G U87C U120G]	1.66
GUUAACGGUCAUAGGCCAUGGAAGCUAGGAGCACCAUUUCGCUGCCAGUGAAGAAAUGAACAAAGAAAAUCUGGGCCAGGCAGGCAUCAAAAGAAAUAGUCUUGCGCCCAACCAGUAAGUCUGUAAUCAUUUUAAGGGUA [A24G U108C A116U]	0
GUUAACGGUCAUAGGCCAUGGAAACUAGGAGCACCAUUUCGCUGCCAGUGAAGAAAUGAACAAAGAAAAUCUGGGCCAGGCAGGCACCAAAAGAGAUAGUCUUGCGCUCAACCGGAAAGUCUGUAAUCAUUUUAAGGGUA [U87C A95G A114G]	0.38
GAUAACGGUCAUAGGCCAUGGAAACUAGGAGCACCAUUUCGCAGCCAGUGAAGAAAUGAACAAAGAAAAUCUGGGCCAGGCAGGCAUCAAAAGAAAUAGUCUCGCGCUCAACCAGAAAGUCCGUAAUCAUUUUAAGGGUA [U2A U43A U103C U122C]	0.42
GUUAACGGUCAUAGGCCAUGGAAACUAGGAGCUCCAUUUCGCUGCCAGUGAAGAAAUGAACAAAGAAAAUCUGGGCCAGGCAGGCAUCAAAAGAAGUAGUCAUGCGCUCAACCAGAAAGUCUGUAAUCAUUUUAGGGGUA [A33U A96G U102A A135G]	0.18
GUUAACGGUCAUAGGCCAUGGAAACUAGGAGCACCAUUUCGCAGCCAGUGAAGAAAUGAACAGAGAAAAUCUGGGCCAGGCAGGCAUCAAAAGGAAUAGUCUUGCGCUCAACCAGAAAGUCUGUAAUCAUUUUAAGGGUA [U43A A63G A94G]	0.69
GCUAACGGUCAUAGGCCAUGGAAACUAGGAGCACCAUUUCGCUGCCAGUGAAGAAAUGAACAAAGAAAACCUGGGCCAGGCAGGCAUCAAAAGAAAUAGUCUUGCGCUCAACUAGAAAGUCUGUAAUCAUUUUAAGGGUA [U2C U70C C113U]	0.01
GUUAACGGUCAUAGGCCAUGGAAACUAGGAGCACCACUUCGCUGCCAGUGAAGAAAUGAACAAAGAAAAUCUGGGCCAGGCAGGCAUCUAAAGAGAUAGUCCUGCGCUCAACCAGAAAGUCUGUAAUCAUUUUAAGGGUA [U37C A89U A95G U102C]	2.76
GUUAAUGGUCAAAGGCCAUGGAAACUAGGAGCACCAUUUCGCUGCCAGUGAAGAAAUGGACAAAGAGAAUCUGGGCCAGGCGGGCAUCAGAAGAAAUGGUCUUGCGCUCAACCAGAGAGUCUGUAAUCAUUUUAAGGGUA [C6U U12A A59G A67G A82G A90G A98G A117G]	0.19
GUUAAUGGUCAUAGGCCAUGGGAACUAGGAGCACCAUUUCGCUGCCAGUGAAGAAAAGAACAAAGAAAAUCUGGGCCAGGCAGGCAUCAAAAGAAAUAGUCUUGCGCUCAACCAGAAAGUCUGUAAUCGUUUUAAGGGUA [C6U A22G U57A A129G]	0.53
GUUAACGGACAUAGGCCAUGGAAACUAGGAGCACCAUUCCGCUGCCAGUGAAGAAAUGAACAAAGAAAAUCUGGGCCAGGCAGGCAUCAAAAGAAAUAGUCUUGCGCUCAACCAGAAAGUCUGUAACCGUUUUAAGGGUA [U9A U39C U127C A129G]	0.44
GUUAACGGUCAUAGGCCAUGGAAACUAGGAGCACCAUUUCGCUGCCAGUGAAGAAGUGAACAAAGAGAAUCUGGGCCAGGCAGGCAUCAAAAGAAAUAGUCUUGCGCUCAACCGGAAAGUCUGUAAUCAUUUUAAGGGUA [A56G A67G A114G]	0.26
GUUAACGGUCAUGGGCCAUGGAAACUAGGAGCGCCAUUUCGCUGCCAGUGAAGAAAUGAACAAAGAAAAUCUGGGCCAGGCAGGCAUCAAAAGAAAUAGUCUUGCGCUCAACCAGAAAGUCUGUAAUCAUUUCAAGGGUA [A13G A33G U133C]	0.99
GUUAACGGUCAUAGGCCAUGGAAACUGGGAGCACCAUUUCGCUGCCAGGGAAGAAAUGAACAAAGAAAAUCUGGGCCAGGCAGGCAUCAAAAGAAAUAGUCUUGCGCUCAACGAGAAAGUCUGUAAUCAUUAUAAGGGUA [A27G U49G C113G U132A]	0
GUUAGCGGUCAUAGGCCAUGGAAACUAGGAGCACCAUUUCGCUGCCAGUGAAGAAGUGAACAAAGAAAAUCUGGGCCUGGCAGGCAUCAAAAGAAAUAGUCUUGCGCUCAACCAGAAAGUCUGUAAUCAUUGUAAGGGUA [A5G A56G A78U U132G]	0.13
GUCAACGGUCAUAGGCCAUGGAAAUUAGGAGCACCAUUUCGCAGCCAGUGAAGAAAUGAACAAAGAAAAUCUGGGCCAGGCAGGCAUCAAAAGAAAUAGUCUUGCGCCCAACCAGAAAGUCUGUAAUCGUUUUAAGGGUA [U3C C25U U43A U108C A129G]	0.02
GUUAACGGUCGUAGGCCAUGGAAACUAGGAGCACCAUUUCGCUGCCAGUGAAGAAAAGAACAAAGAAAAUCUGGGCCAGGCAGGCAUCAAAAGAAAUAGUCCUGCGCUCAACCAGAAAGUCUGUAAUCAUUUUAAGGGUA [A11G U57A U102C]	1.09
GUUAACGGUCAUAGGCCAUGGAAGCUAGGAGCACCAUUUCGCUGCCAGUGAAGAAAUGAACAAAGAAAAUCUGGGCCAGGCAGGCAUCAAAAGAAAUAGACUUACGCUCAACCGGAAAGUCUGUAAUCAUUUUAAGGGUA [A24G U100A G104A A114G]	0.01
GAUAACGGUCAUAGGCCGUGGAAACUAGGAGCACCAUUUCGCUGCCAGUGAAGAAAUGAACAAAGAAAAUCUGGGCCAGGCAGGCAUCAAAAGAAAUAGUCUUGCGCUCAACCAGAAAGUCUGUAACCAUUUUAAGGGUA [U2A A18G U127C]	1.55
GUUAACGGUCAUAGGCCAUGGAAACUAGGAGCACCACUUCGCUGCCAGUGAAGAAAUGUACAAAGAAAAUCCGGGCCAGGCAGGCAUCAAAAGAAAUAGUCUUGCGCUCAGCCAGAAAGUCUGUAAUCAUUCUAAGGGUA [U37C A59U U72C A111G U132C]	0
